The test has as its target GST-BAK (human) (UniProt Q16611). The test is described as follows: fluorescence polarisation; competitive: displacement of 10 nM BID BH3 SAHB-fluorescein from 1 µM GST-BAK by BH3 peptides in dose response; 50 mM Tris-HCl pH 7.5, 50 mM KCl, 0.1 mg/mL BSA, 2 mM DTT, 0.005% Tween-20; 60 min at RT; IC50 from percent inhibition, 4-parameter fit.

Read-outs that look alike come from different tables or passages of the source. Certain results were filed several times, with different values. This is not the full list of results. An entry can have further records. For some assays here: Values given together seem to repeat one measurement; one of them may be the mean. Some values that stand alone complete this part of the results.

By IC50 is commonly meant the concentration at which inhibition is half-maximal. A high value points to a need for much substance.

Sequence of UniProt Q16611 (Q16611 whole entry): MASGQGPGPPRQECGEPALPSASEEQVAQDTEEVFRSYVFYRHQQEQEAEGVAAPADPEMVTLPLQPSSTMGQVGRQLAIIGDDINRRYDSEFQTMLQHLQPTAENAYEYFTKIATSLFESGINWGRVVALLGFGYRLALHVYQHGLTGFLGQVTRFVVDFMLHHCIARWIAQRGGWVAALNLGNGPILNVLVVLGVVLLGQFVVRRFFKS

As for W(3) BID BH3 peptide, the IC50 was 7.12, 5.47, 7.79, 5.63, 5.62, 7.05, 5.66, 7.11, 8.02 µM [columns of one line]. Where the note is “mean of experiments”, the IC50 was 6.61 µM.

For the substance W(5) BID BH3 peptide, the IC50 is 10.9, 9.86, 9.96, 6.42, 8.23, 7.4, 10.4, 8.24, 7.77 µM [columns of one line]. This substance had an IC50 (mean of experiments) of 8.79 µM.

Consider WT BID BH3 peptide, for which the IC50 was 12.7, 6.93, 15.4, 8.8, 11, 9.27, 11.6, 22.2 µM [columns of one line].

The values are drawn from PMC8752837, “Structural basis of BAK activation in mitochondrial apoptosis initiation” (Nature Communications, 2022).
